Laboratory results: PubChem BioAssay AID1508624 (National Center for Advancing Translational Sciences (NCATS), 2021)
The whole screen tested about 48,000 compounds, of which about 120 (0.25%) were called active. Roughly 4% stayed inconclusive and do not appear here. The call rests on the fitted dose curve; in most records, active means well fitted activation curve with a large enough effect; inconclusive means small, poorly fitted or top-dose-only effect, or another doubt; inactive means no such curve, though single readings can be large or run the other way. The list shows a part of the results.

experiment: Primary qHTS for Identification of Small Molecule Activators of Huntingtin-Antisense Promoter Activity; conditions: HEK293 HTT-AS promoter firefly luciferase reporter, 24 h; series mostly up to 57.5 µM; activity change, positive = activation: at the top concentration; further: nearly all actives have a fitted effect of over 55% in size
Method in brief: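 Firefly luciferase readout (Dual-Glo, 10 min RT) after 24 h, 37 °C compound exposure (final up to 57.5 uM) of HEK293 reporter cells cultured 24 h beforehand; PTC124 at 50 uM final as control inhibitor; activity scaled vehicle 0%, zero RLU -100%.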

Activity change, positive = activation, inactive:
COc1ccc(Cl)cc1NC(=O)c1c(NCc2cccnc2)sc2c1CCCC2 -19.5%, CC(C)(C)OC(=O)N1CCC(c2c(C(=O)NCCc3ccsc3)cnn2-c2ccc(F)cc2F)CC1 -17.6%, COc1ccccc1C(=O)Nc1nnc(S(=O)(=O)N2CCCCC2)s1 19.6%, CCOC(=O)c1c(Nc2ccc(OCC)cc2)nnc(-c2ccccc2)c1-c1ccccc1 -45.4%, COc1ccccc1NC(=O)CSc1ncc(CO)n1Cc1ccc(F)cc1 -26.1%, COc1ccc2ncc3c(-c4ccccc4)nn(-c4ccc(C)c(C)c4)c3c2c1 -26.5%, CC(C)c1cnc2c(c1SCC(=O)c1ccc(Cl)cc1)c(=O)n(C)c(=O)n2C -38.1%, Cc1ccccc1NC(=O)Cn1c(=O)n(Cc2ccco2)c(=O)c2ccc(C(=O)NC3CCCC3)cc21 -17.1%, Cc1cc(-c2ccccc2)nc2cc(C(=O)Nc3ccc(Cl)c(Cl)c3)nn12 -8.7%, CCN(CC)Cc1ccc2cc(COC(=O)Nc3ccc(C(=O)NO)cc3)ccc2c1 11.8%, CCOc1ccc(NCc2cccn2-c2nnc(N3CCC(C(=O)NCCc4ccc(OCC)c(OCC)c4)CC3)s2)cc1 -52%, CC1CN(C(=O)Nc2ccc(C(=O)NCCc3ccc(Cl)cc3)cc2)c2ccccc2S1 (stereo not given) -13.5%, COCCn1c(C)cc(O)c(C(c2ccc(OC)cc2)N2CCCCC2)c1=O (stereo not given) -8.48%, CC(=O)Oc1cccc2c1C(=O)c1c(OC(C)=O)cc(C(=O)O)cc1C2=O -15.8%, Cc1ccccc1NC(=O)CSCn1nnc2c(=O)[nH]c(Cc3ccc(F)cc3)nc21 7.02%, CCCC(=O)Nc1ccc2nc(SCCOc3ccccc3)sc2c1 -6.32%, CCCN1Cc2cccc(C(=O)Nc3ccccc3F)c2C1=O -11.7%, Cc1cccc(NC(=O)C(=O)NCC(c2cccnc2)N2CCN(Cc3ccccc3)CC2)c1 (stereo not given) -22.7%, Cn1c(C(=O)NCCc2ccccc2)cc2cc(S(=O)(=O)N3CCCCC3)ccc21 -35%, COc1ccc(OC)c(NC(=O)C(Cc2ccccc2)NS(=O)(=O)c2ccc3c(c2)CCC(=O)N3)c1 (stereo not given) -27.8%, CCn1cc2nc(SCc3c(F)cccc3Cl)n(CCc3ccccc3)c(=O)c2n1 -9.06%, CCN(CC)S(=O)(=O)c1ccc2c(c1)N(CC(=O)Nc1cccc(C(C)=O)c1)C(=O)CO2 -19.3%, O=C(Nc1ccc(Br)cc1)Nc1nc2c(s1)CCCCCC2 26.2%, O=C(COCc1cc(-c2ccc3c(c2)OCO3)on1)Nc1cccc(O)c1 -9.55%, CCC(=O)N1c2ccccc2CC1C(=O)NCCCN1CCN(c2ccc(F)cc2)CC1 (stereo not given) -2.85%, Cc1ncc(CSSCc2cnc(C)c(O)c2CO)c(CO)c1O -8.59%, COc1ccc(Cl)cc1S(=O)(=O)Nc1ccc2c(c1)n(C)c(=O)n2C -12.2%, COc1ccc(NC(=O)C(=O)Nc2ccc3nc4n(c(=O)c3c2)CCCCC4)c(OC)c1 -9.75%, CCOC(=O)c1cnc2cc(Cl)c(OC)cc2c1Nc1ccc(Br)cc1C -5.79%, C#CCOc1c(Br)cc(C2C(C(=O)OC)=C(C)NC3=C2C(=O)c2ccccc23)cc1OCC (stereo not given) -4.4%, COc1ccccc1N1CCN(C(=O)C2CCN(S(=O)(=O)c3cccs3)CC2)CC1 -13.9%, COc1ccccc1C(=O)NC1(C(F)(F)F)C(=O)NC(C)=C1C#N (stereo not given) -15.8%, COc1cc(OC)c(NC(=O)c2nn(C)c3c2COc2ccccc2-3)cc1Cl -1.41%, Cc1ccccc1NC(=O)Cn1nnc(C(=O)NCc2ccco2)c1N -18.9%, Cc1ccc(C)c(Cn2c(=O)n(CCc3ccccc3)c(=O)c3c(C)c(C)sc32)c1 7.32%, COc1ccc(Cn2nc3n(c2=O)-c2ccccc2OC3)cc1 11%, Cc1cccc(C(=O)Nc2nnc(S(=O)(=O)N3CCOCC3)s2)c1 5.34%, Cc1ccc(-c2nnc(Nc3cccc(Br)c3)c3ccccc23)cc1S(=O)(=O)N1CCN(C)CC1 -3.71%, O=C(Nc1ccccc1)c1cc2c(-c3ccccc3)nn(-c3ccccc3)c2s1 -11.4%, O=C(CSc1c2c(nc3ccc(Cl)cc13)CCCC2)N1CCN(c2ccc(Cl)cc2)CC1 -13.9%, CCOc1ccc(OC(=O)c2sc3ncn(Cc4cccc(F)c4)c(=O)c3c2C)cc1 -10.3%, CSc1ccc(CCNS(=O)(=O)c2cc(-c3cc(C)no3)ccc2C)cc1 -26%, Cc1ccc(NC(=O)CC2Sc3ccccc3NC2=O)c(C)c1 (stereo not given) -19%, CC1(C)OC(=O)NC1=O 1.6%, CCOC(=O)c1ccc(-c2ccc(/C=C(\C#N)C(=O)Nc3cccc(C)c3)o2)cc1 4.62%, CN(N=O)C(=O)N[C@H]1C(O)OC(CO)[C@@H](O)[C@H]1O (stereo not given in full) -13.4%, CCN(C(=O)c1cc(S(=O)(=O)N2CCCCC2)c[nH]1)c1ccc(OC)cc1 -26.4%, CCOc1ccc(-n2c(-c3ccc(OC)cc3)cc3c2CC(C)(C)CC3=O)cc1 -29.8%, C=Cc1ccc(CSc2nc(-c3ccc(Cl)cc3)nc3c2Cc2c(CO)cnc(C)c2O3)cc1 -11.9%, COc1ccc(-c2cc(C(F)(F)F)nc(NCc3ccccc3)n2)cc1OC -30.6%, COc1cccc(CN2c3ccccc3-c3nc(SCC(=O)Nc4cccc(C)c4)ncc3S2(=O)=O)c1 -37.3%, CC1CCc2c(sc3nnn(CC(=O)Nc4cccc(C(F)(F)F)c4)c(=O)c23)C1 (stereo not given) -22.3%, CCN1C(C(=O)c2ccccc2)=C(OC(=O)c2ccc(Cl)cc2)c2ccccc2S1(=O)=O -31.7%, CCOc1ccc(Br)cc1C1C(C(=O)Nc2ccccc2OC)=C(C)Nc2nnnn21 (stereo not given) 1.44% [at 11.5 µM, percent change from vehicle, -100% = no light], Cc1cccc(OC(C)C(=O)N2CCC(c3nc4ccccc4o3)CC2)c1C (stereo not given) -20.9%, CCn1c(=O)c(=O)n(CC)c2cc(N3CCCCC3)c(NC(=O)c3cccc(OC)c3)cc21 -11%, Cc1oc(-c2ccc(C(=O)N(C)Cc3ccccc3)cc2)nc1CN1CCc2ccccc21 -52.1%, CCOC(=O)c1cccc(NC(=O)N2Cc3ccccc3Oc3ncccc32)c1 -26.8%, CC(=O)N1c2ccc(S(=O)(=O)NCCc3cccc(C)c3)cc2CC1C (stereo not given) -25.5%, COc1ccc(N2CCN(CC(O)COc3ccc(C)c(C)c3)CC2)cc1 (stereo not given) 0%, CCOc1cccc(NC(=O)CSc2ncc(-c3ccc(Cl)cc3)[nH]2)c1 -9.3%, COc1ccc(-n2c(=O)c3c4c(sc3n(Cc3ccccc3)c2=O)CCC4)c(OC)c1 -18.7%, Cc1ccc(OCCSc2nc3ccccc3n2CCC(=O)O)cc1C -13.5%, CCOc1ccc(NC(=O)NC(CC)Cn2nnc3ccccc3c2=O)cc1 (stereo not given) -9.34%, COc1ccc(/C=C(\NC(=O)c2ccccc2)C(=O)NC2CCCCC2)cc1 -9.06%, CCN1CCN(C(c2ccc(Cl)cc2)c2c(O)cc(C)n(CCOC)c2=O)CC1 (stereo not given) -15.9%, O=C(CSc1ncc(S(=O)(=O)c2ccc(Br)cc2)c(=O)[nH]1)NCc1ccccc1Cl -6.26%, Cc1nc2ncnn2c(C)c1CCC(=O)NCc1ccc(Cl)cc1 -11.9%, COc1ccc(-c2cc(C(=O)Oc3ccc(Cl)cc3)c3ccccc3n2)cc1 10.3%, CCCCn1cnc2cc(NC(=O)c3cc(OC)c(OC)c(OC)c3)ccc21 -18.5%, Cc1cc(C)cc(N(CC(=O)Nc2ccc(C(F)(F)F)cc2)S(=O)(=O)c2c(C)[nH]c(=O)[nH]c2=O)c1 -19.6%, COc1cc(Cl)c(C)cc1NC(=O)CSCc1nc(-c2ccc(OC)c(OC)c2)no1 -22.2%, Cc1ccc(C)c(Cn2cc(CCC(=O)NC3CCCCC3)c3ccccc32)c1 -3.57%, Cc1cccc(C)c1NC(=O)C1CCN(S(=O)(=O)c2cccc3nsnc23)CC1 -12.7%, Cc1ccc(NC(=O)Cn2ccn(Cc3ccc(Cl)cc3)c(=O)c2=O)cc1C -4.66%, CCOC(=O)C1CCN(C(=O)c2ccc3c(c2)sc2nc(-c4ccc(OCC)cc4)cn23)CC1 -25.8%, COc1ccc(-c2nc(SCC(=O)NC3CCCC3)c(-c3ccccc3)[nH]2)cc1OC -5.04%, CC(=O)c1cccc(-n2c(CCC(=O)O)ccc2-c2ccccc2)c1 5.79%, COc1ccc(OC)c(Nc2cc(C(=O)NCc3ccccc3)c3ccccc3n2)c1 -25.4%, CCOc1ccccc1C(=O)N1CCc2cc(OC)c(OC)cc2C1COc1ccc2c(C)cc(=O)oc2c1 (stereo not given) -4.26%, COc1ccc(CNC(=O)c2cnn(-c3ccc(C)cc3)c2C2CCN(C(=O)OC(C)(C)C)CC2)cc1 -35.7%, Fc1ccc(-c2nnc(CN3CCN(c4ccccn4)CC3)o2)cc1 -1.34%, COc1ccc(C(=O)c2cn(Cc3ccc(F)cc3)c3c(F)cc(F)cc3c2=O)cc1 -20.2%, O=C(C1COc2cc(S(=O)(=O)Nc3ccc(Cl)cc3)ccc2O1)N1CCCC1 (stereo not given) -29.4%, CCc1ccccc1N(C)C(=O)c1cc2c(s1)-c1c(C)cccc1OC2 -7.67%, Cc1ccc(Cn2c(C)c(CNCc3ccccc3F)c(C(=O)O)c2C)cc1 -10%, O=C(Cn1ncc2c3ccccc3n(Cc3ccccc3)c2c1=O)NCc1ccccc1 -13.3%, CC(C)NS(=O)(=O)c1ccc(OCC(=O)N2CCN(c3cccc(Cl)c3)CC2)cc1 -44.4%, COc1cc(C2C(C(=O)Nc3ccccc3)=C(C)Nc3nc(SCC(=O)c4ccc(C)cc4)nn32)ccc1O (stereo not given) 2.24%, CCC[C@H](N[C@@H](C)C(=O)N1[C@H](C(=O)O)C[C@@H]2CCCC[C@@H]21)C(=O)OCC -3.12%, CCc1ccc(S(=O)(=O)c2nnn3c2nc(N2CCN(CC)CC2)c2sccc23)cc1 -1.6%, CCOC(=O)c1ccc(N2C(=O)c3n[nH]c(-c4ccco4)c3C2c2cccc(F)c2)cc1 (stereo not given) -44.2%, Cc1ccc(NC(=O)CSc2nc3ccc(NC(=O)c4cccc(Cl)c4)cc3s2)c(C)c1 -25.6%, COc1ccccc1C(=O)Nc1ccc(-c2nc3cc(C)cc(C)c3o2)cc1 14.8%, CCC(=O)N1CCc2cc(S(=O)(=O)NC(Cc3ccccc3)C(=O)Nc3ccc(Cl)cc3)ccc21 (stereo not given) -2.34%
